# Measurements from paper PMC6093180.
# The chains behind the UniProt entries cited, without tags or fusion partners. Where a name states a change or a piece, a line headed by the entry shows the natural chain unless it says otherwise.
# UniProt P08621: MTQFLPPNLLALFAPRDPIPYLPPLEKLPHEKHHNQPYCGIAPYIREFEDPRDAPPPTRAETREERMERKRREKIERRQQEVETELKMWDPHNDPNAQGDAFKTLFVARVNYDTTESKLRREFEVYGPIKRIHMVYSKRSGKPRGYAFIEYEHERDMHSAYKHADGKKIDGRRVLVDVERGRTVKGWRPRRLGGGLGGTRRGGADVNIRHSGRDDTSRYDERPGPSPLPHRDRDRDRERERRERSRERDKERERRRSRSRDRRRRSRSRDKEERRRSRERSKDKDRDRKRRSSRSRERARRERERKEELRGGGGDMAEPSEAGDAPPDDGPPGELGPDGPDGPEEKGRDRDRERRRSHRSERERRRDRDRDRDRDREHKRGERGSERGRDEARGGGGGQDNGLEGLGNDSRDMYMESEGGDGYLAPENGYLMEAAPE
# UniProt P09234: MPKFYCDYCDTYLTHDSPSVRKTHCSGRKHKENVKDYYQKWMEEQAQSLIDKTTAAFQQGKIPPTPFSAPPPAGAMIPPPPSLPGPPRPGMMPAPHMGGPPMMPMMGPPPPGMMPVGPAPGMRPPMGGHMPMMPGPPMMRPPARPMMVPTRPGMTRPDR
# Read-outs that look alike come from different tables or passages of the source. No constants are given. Whether binding was seen depends on the method and setting. In cells and extracts the contact can be indirect. Some entries that bind do so weakly or less than the wild type. For some of these results: Tags and fused reporters may be left off the sequences shown.
# T1: RBM39 dRS (aa 138–525), GFP-tagged (UniProt Q14498)
# T1 sequence: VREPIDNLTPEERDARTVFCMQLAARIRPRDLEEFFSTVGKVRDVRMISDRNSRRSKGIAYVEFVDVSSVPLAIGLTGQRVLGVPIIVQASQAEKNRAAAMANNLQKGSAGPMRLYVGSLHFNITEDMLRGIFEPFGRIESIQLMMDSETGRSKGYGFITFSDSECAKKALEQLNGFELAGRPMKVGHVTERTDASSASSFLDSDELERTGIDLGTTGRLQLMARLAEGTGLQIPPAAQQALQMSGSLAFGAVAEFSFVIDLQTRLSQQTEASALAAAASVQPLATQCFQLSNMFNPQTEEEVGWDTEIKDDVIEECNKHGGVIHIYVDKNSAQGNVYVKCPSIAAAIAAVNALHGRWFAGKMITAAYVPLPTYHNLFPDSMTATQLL
# T2: RBM39 dd (aa 138–407), GFP-tagged (UniProt Q14498)
# T2 sequence: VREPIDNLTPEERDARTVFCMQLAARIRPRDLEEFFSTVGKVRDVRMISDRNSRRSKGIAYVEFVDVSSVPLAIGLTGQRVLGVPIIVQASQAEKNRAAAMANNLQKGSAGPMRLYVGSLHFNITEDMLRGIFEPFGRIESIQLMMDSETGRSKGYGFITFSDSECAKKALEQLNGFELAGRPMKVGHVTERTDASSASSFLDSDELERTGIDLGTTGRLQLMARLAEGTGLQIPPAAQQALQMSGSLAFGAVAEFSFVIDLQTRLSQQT
# T3: RBM39-GFP, full-length protein (UniProt Q14498)
# T3 sequence: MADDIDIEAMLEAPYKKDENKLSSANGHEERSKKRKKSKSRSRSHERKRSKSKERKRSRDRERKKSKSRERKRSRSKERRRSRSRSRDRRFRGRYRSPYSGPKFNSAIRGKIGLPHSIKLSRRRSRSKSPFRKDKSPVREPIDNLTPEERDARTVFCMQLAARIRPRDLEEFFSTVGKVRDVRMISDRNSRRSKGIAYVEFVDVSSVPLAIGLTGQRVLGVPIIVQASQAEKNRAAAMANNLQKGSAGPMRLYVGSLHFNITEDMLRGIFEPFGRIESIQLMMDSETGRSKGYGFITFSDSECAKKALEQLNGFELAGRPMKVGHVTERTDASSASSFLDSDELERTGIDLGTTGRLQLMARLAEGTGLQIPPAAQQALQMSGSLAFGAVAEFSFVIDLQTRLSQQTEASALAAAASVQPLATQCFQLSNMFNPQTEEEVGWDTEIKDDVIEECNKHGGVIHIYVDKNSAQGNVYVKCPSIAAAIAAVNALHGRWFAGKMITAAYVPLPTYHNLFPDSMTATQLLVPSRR
# What was measured:
# Experiment in all cases: co-IP; HeLa cells transiently transfected with GFP-tagged constructs; extracts in NET2 (50 mM Tris-HCl pH 7.5, 150 mM NaCl, 0.05% Nonidet P-40), sonicated; 2 h with Protein-G agarose beads covered with goat polyclonal anti-GFP; co-precipitated endogenous proteins seen by western blot
# [1] = biological target: T1, RBM39 dRS (aa 138–525), GFP-tagged
# [2] = biological target: T2, RBM39 dd (aa 138–407), GFP-tagged
# [3] = biological target: T3, RBM39-GFP, full-length protein
# U1-70K-GFP (human) = U1-70K-GFP (human) (UniProt P08621)
# [4] = biological target: T1, RBM39 dRS (aa 138–525), GFP-tagged; remark: listed apart in the source
# [5] = biological target: T2, RBM39 dd (aa 138–407), GFP-tagged; remark: listed apart in the source
# [6] = biological target: T3, RBM39-GFP, full-length protein; remark: listed apart in the source
molecule,measurement,setting,value
U1-70K (endogenous) (from UniProt P08621 1-437),binding,[1],no binding
same,binding,[2],no binding
same,binding,[3],binds
U1C (endogenous) (from UniProt P09234 1-159),binding,U1-70K-GFP (human),binds
"U2AF35 (endogenous) (protein, UniProt Q01081 1-240) MAEYLASIFGTEKDKVNCSFYFKIGACRHGDRCSRLHNKPTFSQTIALLNIYRNPQNSSQSADGLRCAVSDVEMQEHYDEFFEEVFTEMEEKYGEVEEMNVCDNLGDHLVGNVYVKFRREEDAEKAVIDLNNRWFNGQPIHAELSPVTDFREACCRQYEMGECTRGGFCNFMHLKPISRELRRELYGRRRKKHRSRSRSRERRSRSRDRGRGGGGGGGGGGGGRERDRRRSRDRERSGRF",binding,[4],no binding
same,binding,[5],no binding
same,binding,[6],binds
